# Measured values taken from article PMC4336329 (PLoS ONE, 2015).
# In all, about 310,000 compounds went through this assay and about 2,200 (0.71%) showed an effect of 50% or more. The effect is printed as a negative number. This is one part of the list.
# Target: human ether-à-go-go-related gene (hERG) potassium channel (human, UniProt Q12809)
# Assay: primary screen, population patch clamp on CHO cells stably expressing hERG
# Sequence of human ether-à-go-go-related gene (hERG) potassium channel (Q12809 whole entry, looked up): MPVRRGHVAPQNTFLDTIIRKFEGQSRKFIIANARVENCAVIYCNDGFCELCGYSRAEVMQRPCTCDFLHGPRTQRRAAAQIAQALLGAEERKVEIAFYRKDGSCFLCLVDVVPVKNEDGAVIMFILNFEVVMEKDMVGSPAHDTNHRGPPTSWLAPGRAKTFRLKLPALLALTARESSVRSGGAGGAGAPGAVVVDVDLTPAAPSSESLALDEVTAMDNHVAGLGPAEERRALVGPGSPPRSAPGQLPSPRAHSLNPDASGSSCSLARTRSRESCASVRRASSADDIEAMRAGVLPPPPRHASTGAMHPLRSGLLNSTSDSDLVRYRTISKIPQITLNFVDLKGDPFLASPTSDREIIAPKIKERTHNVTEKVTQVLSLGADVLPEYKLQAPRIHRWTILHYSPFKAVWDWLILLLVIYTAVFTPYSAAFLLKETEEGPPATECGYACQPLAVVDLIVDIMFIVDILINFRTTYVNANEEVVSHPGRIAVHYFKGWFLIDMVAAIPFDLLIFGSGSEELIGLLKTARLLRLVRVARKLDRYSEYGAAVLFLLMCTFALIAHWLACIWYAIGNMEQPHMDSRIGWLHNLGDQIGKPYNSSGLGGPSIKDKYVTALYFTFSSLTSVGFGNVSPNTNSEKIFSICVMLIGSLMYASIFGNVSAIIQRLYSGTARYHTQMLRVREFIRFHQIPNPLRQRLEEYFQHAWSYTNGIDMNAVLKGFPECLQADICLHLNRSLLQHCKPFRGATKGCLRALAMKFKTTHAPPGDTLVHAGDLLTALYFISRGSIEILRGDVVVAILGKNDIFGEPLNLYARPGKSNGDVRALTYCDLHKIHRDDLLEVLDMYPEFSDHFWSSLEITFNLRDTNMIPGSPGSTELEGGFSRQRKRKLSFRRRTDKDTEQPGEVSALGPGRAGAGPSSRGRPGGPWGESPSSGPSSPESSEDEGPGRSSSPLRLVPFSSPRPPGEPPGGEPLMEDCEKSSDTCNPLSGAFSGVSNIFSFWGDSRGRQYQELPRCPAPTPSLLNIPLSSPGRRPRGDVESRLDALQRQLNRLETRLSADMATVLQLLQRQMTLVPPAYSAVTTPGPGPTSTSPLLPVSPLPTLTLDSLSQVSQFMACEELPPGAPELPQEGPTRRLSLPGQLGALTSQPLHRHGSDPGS
row,SMILES,"hERG current change (%, negative = inhibition) at 1uM"
1,Cc1ccccc1N1CC(C(=O)Nc2ccc(S(=O)(=O)N3CCOCC3)cc2)CC1=O (stereo not shown),8.31%
2,CC1CN=C(N(C(=O)Nc2ccccc2)c2ccc(S(=O)(=O)N3CCOCC3)cc2)S1 (stereo not shown),1.89%
3,CCCCCCc1c(O)c2ccccc2[nH]c1=O,0.504%
4,CCc1c(C)nc2nc(NC(C)=O)[nH]n2c1=O,16.2%
5,CC(C)SCc1nc2ccccc2[nH]1,1.34%
6,CCCS(=O)(=O)N1CCC(C(=O)NCc2ccccc2Cl)CC1,10.2%
7,COc1ccc(C2CC(c3ccc(C)cc3)Nc3nc(N)nn32)cc1 (stereo not shown),7.13%
8,O=C(Cc1cccs1)NNC(=S)NC(=O)c1ccc(F)c(F)c1,11.5%
9,O=C(Oc1ccc(=O)n(-c2ccccc2)n1)c1ccc(Cl)cc1,8.77%
10,CCCn1ncc(/C=N/O)c1C,12.5%
11,CC(=Nc1cccc(O)c1)c1sc2ccccc2c1O,12.2%
12,O=C(/C=C/c1ccco1)NC(=S)Nc1cc(-c2nc3ccccc3s2)ccc1Cl,4.95%
13,Cc1cc(C)n(CCc2nc3c4ccccc4n(CC#N)c(=O)n3n2)n1,9.38%
14,COCCNC(=O)C(=O)Nc1ccc2c(c1)N(S(=O)(=O)c1cccs1)CCC2,13.5%
15,O=C1CSCN1c1cc(Cl)ccc1Cl,9.56%
16,COc1ccc(S(=O)(=O)N2CCC(Cc3ccccc3)CC2)cc1C(N)=O,20.8%
17,CCCNS(=O)(=O)c1cccc(C(=O)NNC(=O)c2cc(C)oc2C)c1,15.2%
18,Cc1c(C(=O)C(=O)NCCC2=CCCCC2)c2ccccc2n1C,10.4%
19,Cc1ccc(NC(=O)Cn2c(O)c(N=NC(N)=O)c3ccccc32)cc1,-3.88%
20,CCS(=O)(=O)Nc1cccc(C2=NN(C(C)=O)C(c3cccs3)C2)c1 (stereo not shown),17.2%
21,O=C(CN1C(=O)c2ccccc2C1=O)NCc1ccc(C(=O)O)cc1,12.6%
22,C[C@H](CCC(=O)O)[C@H]1CC[C@H]2[C@@H]3[C@@H](O)C[C@@H]4C[C@H](O)CC[C@]4(C)[C@H]3CC[C@]12C,5.06%
23,NC(=O)C1=C[C@@H](c2coc3ccccc3c2=O)C[C@@H](OCCCCO)O1,7.66%

row,SMILES,"hERG current change (%, negative = inhibition) at 1uM"
1,CN(CC(=O)Nc1ccccc1Br)C(=O)CN1CCN(c2ccccc2Cl)CC1,6.12%
2,Cc1ccc(S(=O)(=O)N2CCC(C(=O)Nc3ccccc3N3CCCCC3)CC2)cc1C,-3.96%
3,O=C(CN1CCN(c2ccccc2O)CC1)NC(=O)NCc1ccco1,1.07%
4,CC1C(Br)C(=O)NC(=O)N1Cc1ccccc1 (stereo not shown),14.2%
5,CCOC(=O)c1c(C)[n+]([O-])c2ccc3c(non3O)c12,13.3%
6,Cc1c(Cl)cccc1-c1ccc(CNCc2ccccn2)o1.Cl,9.72%
7,NS(=O)(=O)c1ccc(CCNS(=O)(=O)c2cccs2)cc1,7.48%
8,O=c1[nH]cc(S(=O)(=O)N2CCN(c3cccc(Cl)c3)CC2)c(=O)[nH]1,-7.64%
9,COc1cc(C(C)=O)ccc1OCCCN1CCC(Cc2ccccc2)CC1.O=C(O)C(=O)O,-82.8%
10,Cc1ccc2c(c1)C1NC(=S)NC(C)(O2)C1C(=O)Nc1ccc(Cl)cc1 (stereo not shown),14.5%
11,CCOC(=O)Cc1c(C)nc(SC)[nH]c1=O,14.7%
12,O=S(=O)(Nc1c(F)cccc1F)c1ccc2c(c1)OCCO2,11.6%
13,CC(=O)c1ccc(NC(=O)c2sc3nc4n(c(=O)c3c2C)CCCCC4)cc1,1.94%
14,Cn1c(C(=O)NCc2ccccn2)cc2c(=O)n3ccccc3nc21,7.21%
15,Cc1cc(=O)oc2cc(OC(=O)C3CCN(C(=O)c4ccc(F)cc4)CC3)ccc12,11.1%
16,Cc1csc2c(N3CCN(C(=O)c4ccc(C(C)(C)C)cc4)CC3)ncnc12,2.51%
17,O=C(CN(C(=O)CCC(=O)Nc1ccccn1)c1cccc(F)c1)NCc1ccc(F)cc1,3.47%
18,O=C(NCc1ccccc1Cl)c1cccc(C(F)(F)F)c1,0.675%
19,c1ccc(-c2cnnc(N3CCOCC3)n2)cc1,1.64%
20,CCOC(=O)C1CCN(c2c(NCCN(CC)c3ccccc3)c(=O)c2=O)CC1,4.79%
21,COc1ccc(C(=O)O/N=C(\C)c2cnccn2)cc1,10.3%
22,Oc1cc2ccccc2cc1-c1nnc2n1-c1ccccc1SC2,-7.18%
23,CCOC(=O)c1cc(-c2ccc(C)c([N+](=O)[O-])c2)nc2c1c(=O)n(C)c(=O)n2C,5.91%
